Results: PubChem BioAssay AID485344 (National Center for Advancing Translational Sciences (NCATS), 2010)
The campaign covered roughly 340,000 compounds. About 6,900 (2%) were called active. Cut-off read from the data, not from the text of the source: active = inhibition above about 30%; inactive = below that, where a call was filed. The list shows a part of the results, in another mix than the full data. Entries without a call were filed so in the source.

The compounds below were run against D(2) dopamine receptor (Homo sapiens) (UniProt P14416) (assay: HTS Assay for Allosteric Antagonists of the Human D2 Dopamine Receptor: Primary Screen for Antagonists). Conditions: HEK293 TREx D2 cells, calcium flux, dopamine EC80; at 10 µM; stronger effect = higher value.
Chain of UniProt P14416 (P14416 whole entry, looked up): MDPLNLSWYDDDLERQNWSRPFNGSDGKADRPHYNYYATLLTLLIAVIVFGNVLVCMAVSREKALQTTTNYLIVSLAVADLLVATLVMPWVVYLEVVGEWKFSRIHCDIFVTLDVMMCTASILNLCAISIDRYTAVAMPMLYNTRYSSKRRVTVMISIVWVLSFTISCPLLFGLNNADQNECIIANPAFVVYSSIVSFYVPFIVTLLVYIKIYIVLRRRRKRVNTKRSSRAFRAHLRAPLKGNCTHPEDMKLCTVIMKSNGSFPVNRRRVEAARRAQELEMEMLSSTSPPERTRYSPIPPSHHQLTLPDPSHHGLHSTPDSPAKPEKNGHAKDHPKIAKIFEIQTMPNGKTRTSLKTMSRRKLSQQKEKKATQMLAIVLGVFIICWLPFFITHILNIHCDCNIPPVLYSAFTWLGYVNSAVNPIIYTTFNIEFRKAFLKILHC
Summary of the method: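 Tetracycline-induced HEK293 TREx cells expressing D2 receptor forced-coupled to calcium signalling, loaded with no-wash calcium dye. Compounds added and calcium flux read 180 s, then dopamine added at EC80 and read a further 180 s.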
Note: 0% is about no effect.

First: O=C(Nc1ccc(Br)cc1)C1CCCN(S(=O)(=O)c2ccc(Br)s2)C1 (stereo not drawn)
Second: Cc1cccc(N2CCN(C(=O)C3CCC(CNS(=O)(=O)c4ccc(Br)s4)CC3)CC2)c1C (stereo not drawn)
The inhibition of the first is lower: -13.6% for the first, 3.37% for the second.

Going from `CCn1c(=O)c2sccc2n2c(CCCC(=O)N3CCN(c4ccc(OC)cc4)CC3)nnc12` to `COc1ccc(N2CCN(C(=O)c3c(C)oc4ncnc(N5CCCCC5)c34)CC2)cc1`, the inhibition rises from -12.8% to -0.481%.

Going from `CCc1cccc(NC(=O)c2nnn(Cc3ccc(SC)cc3)c2N)c1` to `CCc1ccc2oc(C(=O)NCc3ccccc3)cc(=O)c2c1`, the inhibition falls from 6.23% to -14.1%.

Going from `Cc1cccc(N2CCN(C(=O)C3CCCN(S(=O)(=O)c4cccc5nsnc45)C3)CC2)c1C` (stereo not drawn) to `CCc1nn(CC(=O)N2CCN(c3cccc(C)c3C)CC2)c(=O)c2cc3occc3n12`, the inhibition falls from 15.9% to -7.69%.

Going from `O=C1CC(c2ccccc2)Cc2[nH]c(=O)c(C(=O)Nc3ccc(OC(F)(F)F)cc3)cc21` (stereo not drawn) to `O=c1[nH]c(C2CCCN(S(=O)(=O)c3ccccc3)C2)nc2c1nnn2Cc1ccc(OC(F)(F)F)cc1` (stereo not drawn), the inhibition falls from -4.92% to -21%.

Going from `Cc1ccc(Nc2ncnc3c2cnn3-c2ccccc2)c(C)c1` to `CCC(C(=O)Nc1ccccc1C(=O)OC)n1c(C)c2cnn(-c3ccccc3)c(=O)c2c1C` (stereo not drawn), the inhibition falls from 4.29% to 3.8%.

Going from `Cc1cccc(-c2noc(CCCC(=O)NCc3ccco3)n2)c1` to `COCCn1c(CCC(=O)Nc2cc(C)ccc2C)nc2cccnc21`, the inhibition falls from -1.61% to -3.95%.

Going from `CCN(c1ccccc1)S(=O)(=O)c1cc(-c2onc(C)c2C)ccc1OC` to `Cc1cccc(OCc2cc(=O)n3c(-c4ccccc4)csc3n2)c1C`, the inhibition rises from -19.9% to 1.46%.

Compared with `Cc1ccc(C)c(Cn2c(C(C)NC(=O)c3ccc(F)cc3)nc3ccccc32)c1` (stereo not drawn), `Cc1ccc(NC(=O)Cn2c(-c3nonc3N)nc3ccccc32)c(Br)c1` is lower in inhibition: 2.88% for the first, -21.1% for the second.

Compared with `Cc1c2cnn(CC(=O)N3CCN(c4ccccc4)CC3)c(=O)c2c(C)n1Cc1ccc(F)cc1`, `COc1cccc(CNC(=O)Cn2nc(N3CCN(c4ccccc4OC)CC3)ccc2=O)c1` is higher in inhibition: -1.53% for the first, 4.32% for the second.

First: CCOc1ccccc1NC(=O)CCS(=O)(=O)c1cccc2nsnc12
Second: CCOc1ccccc1NC(=O)Cn1c(=O)n(CCC(C)C)c(=O)c2cccnc21
The inhibition of the first is higher: -9.13% for the first, -23.3% for the second.

Compared with `COc1cccc(NC(=O)CCS(=O)(=O)c2ccc3c(c2)oc(=O)n3C)c1`, `Cn1c(=O)oc2cc(S(=O)(=O)N3CCC(C(=O)NCc4ccccc4Cl)CC3)ccc21` is lower in inhibition: 0.122% for the first, -18.5% for the second.

First: COc1ccc(NC(=O)Cn2c(=O)n(CCCC(=O)NCc3ccccc3OC)c(=O)c3ccccc32)cc1Cl
Second: Cn1cc(-c2cc3n(n2)CCC(=O)N3CCCC(=O)NCc2ccccc2Cl)c2ccccc21
The inhibition of the first is higher: -8.72% for the first, -10% for the second.

Going from `Cn1c(NCCCCO)nc2c1c(=O)n(Cc1ccc(Cl)cc1)c(=O)n2C` to `Cc1ccc2c(c1)c1c(c(=O)n(-c3cccc(Cl)c3)c(=O)n1CC(=O)N1CCCC1)n2C`, the inhibition falls from 5.75% to -13.7%.

First: O=C(Cn1cc(S(=O)(=O)Cc2ccccc2Cl)c2ccccc21)NCc1ccccc1Cl
Second: Cc1ccc(-n2c(=O)c3ccc(C(=O)NCc4ccccc4Cl)cc3n(CC(=O)Nc3ccc(C)cc3C)c2=O)cc1
The inhibition of the first is lower: -12.2% for the first, -7.21% for the second.

Compared with `CCc1nn(CC(=O)NC(C)CCc2ccccc2)c(=O)c2cc3cc(F)ccc3n12` (stereo not drawn), `O=C(CSc1ncc2c(n1)-c1ccccc1N(Cc1ccc(F)cc1)S2(=O)=O)NCCc1ccccc1` is higher in inhibition: -0.489% for the first, 2.3% for the second.

Compared with `CCc1nnc(NC(=O)c2nc(S(=O)(=O)Cc3cccc(C)c3)ncc2Cl)s1`, `C#CC(C)(CC)NC(=O)Cn1nnc(-c2ccc(OCc3c(F)cccc3Cl)cc2)n1` (stereo not drawn) is higher in inhibition: -12.3% for the first, 3.87% for the second.

Going from `NC(=O)CSc1oc(-c2ccco2)nc1S(=O)(=O)c1ccc(Br)cc1` to `COc1ccc(Br)cc1CNC(=O)c1cc(=O)[nH]c2ccc(S(=O)(=O)N3CCCC3)cc12`, the inhibition rises from 5.86% to 10.6%.

Compared with `CCCCn1cc(S(=O)(=O)c2ccc(C)c(C)c2)c(=O)c2cc(F)c(N3CCN(C)CC3)cc21`, `CCn1cc(C(=O)NCCCOC(C)C)c(=O)c2cc(S(=O)(=O)N3CCc4ccccc4C3)ccc21` is higher in inhibition: 2.41% for the first, 6.55% for the second.

Compared with `O=C(CN1C(=O)CCSc2ccc(S(=O)(=O)N3CCCC3)cc21)Nc1ccccc1`, `COc1ccc(C)cc1NC(=O)CN1C(=O)COc2ccc(S(=O)(=O)N3CCC(C)CC3)cc21` is higher in inhibition: -22.2% for the first, -2.81% for the second.

Compared with `CCC(Oc1ccccc1)C(=O)Nc1ccc(O)c(-c2nc3cc(C)ccc3o2)c1` (stereo not drawn), `CCOc1ccc(-c2nc3ccccc3c(=O)o2)cc1` is higher in inhibition: -12.3% for the first, 0.164% for the second.

Compared with `CC(=O)c1ccc(N2CCN(S(=O)(=O)c3c(C)nc4sc(C)cn4c3=O)CC2)cc1`, `CCCCN(CC)CCNC(=O)Cn1cnc2sc(C)c(S(=O)(=O)N3CCC(C)CC3)c2c1=O` is lower in inhibition: 11.2% for the first, -1.87% for the second.

Compared with `CCCn1c(SCc2nc(-c3ccccc3C)no2)nnc1-c1ccc(Cl)cc1`, `CCOc1ccc(-n2c(SCc3nc(-c4ccc(OC)cc4)no3)nnc2-c2ccncc2)cc1` is lower in inhibition: 12.1% for the first, 0.582% for the second.

Going from `CCOC(=O)c1[nH]c(C)c(CCC(=O)Nc2c(C)cc(C)cc2C)c1C` to `COc1cccc(CNC(=O)CCc2c(C)c3ccc(O)c(C)c3oc2=O)c1`, the inhibition rises from 9.42% to 10.3%.

Compared with `COc1ccc(N2C(=O)CSC23C(=O)N(CC(=O)NC2CCCCC2)c2ccccc23)cc1` (stereo not drawn), `CN1C(=O)C2(c3ccccc31)N(c1ccc(Br)cc1)C(=O)CS2(=O)=O` (stereo not drawn) is lower in inhibition: 4.9% for the first, -1.1% for the second.

Compared with `COc1ccc(Cn2c(C(=O)O)c(CNCc3cccc(OC)c3)c3ccc(C)cc32)cc1`, `CCOc1ccc(NC(=O)CC2C(=O)N(c3ccccc3)C(=O)N2CCc2ccc(OC)cc2)cc1` (stereo not drawn) is higher in inhibition: 2.17% for the first, 8.82% for the second.

Compared with `O=C1c2oc3ccccc3c(=O)c2C(c2ccc(Br)cc2)N1c1ccccn1` (stereo not drawn), `O=C1CN(C(=O)Cc2ccc(F)cc2)C(c2ccccc2)c2cc(Br)ccc2N1` (stereo not drawn) is higher in inhibition: -12.2% for the first, 2.75% for the second.

Going from `COC(=O)c1cnn(-c2ccc(C(=O)Nc3cccc(C(C)=O)c3)cc2)c1N` to `CC1=C(C(=O)Nc2ccccc2)C(c2ccccc2C)n2ncc(C(=O)Nc3ccccc3)c2N1` (stereo not drawn), the inhibition falls from 21.2% to 9.83%.

First: Cc1ccc(NC(=O)Cn2nc(C)c3nn(-c4ccc(Cl)cc4)c(C)c3c2=O)cc1C
Second: Cc1c(Cl)cccc1NC(=O)C(C)n1c(=O)cc(C)c2c(C)nn(-c3ccccc3)c21 (stereo not drawn)
The inhibition of the first is higher: 3.86% for the first, -18.5% for the second.

Compared with `Cc1ccc2c(=O)c(C(=O)c3ccccc3)cn(CC(=O)Nc3ccc4c(c3)OCCO4)c2n1`, `CCOC(=O)c1cccc(NC(=O)[C@H](CSCc2ccccc2)N2Cc3ccccc3C2=O)c1` is higher in inhibition: -13% for the first, -10.1% for the second.

Going from `CC(C)(C)c1ccc(C2Sc3ccccc3NC3=C2C(=O)c2ccccc23)cc1` (stereo not drawn) to `COc1ccc(-n2c(SCc3ccccc3)nc3c([nH]c4ccccc43)c2=O)cc1`, the inhibition falls from 7.92% to -3.84%.

First: Cc1nc2ccccc2n1CCc1nc2c3ccccc3nc(SCc3cccc(F)c3)n2n1
Second: CC(C)CCn1c(SCc2cccc(F)c2)nc2ccsc2c1=O
The inhibition of the first is higher: 10.7% for the first, -7.86% for the second.

Going from `Cc1cc(C)cc(OCCn2c(C3CC(=O)N(c4ccccc4Cl)C3)nc3ccccc32)c1` (stereo not drawn) to `Cc1ccc(OCCOCCn2c(-c3ccc(Cl)cc3)nc3ccccc3c2=O)cc1`, the inhibition rises from -7.23% to 10.4%.

Going from `CCCNC(=O)c1cc2nc(-c3ccc(Br)cc3)cc(C(F)(F)F)n2n1` to `COc1ccc(Br)cc1CNC(=O)c1cc2ccccn2n1`, the inhibition rises from -3.41% to -0.181%.

First: CCOc1cccc2cc(-c3nc4sc5c(c4c(=O)[nH]3)CCC(C(C)(C)C)C5)c(=O)oc12 (stereo not drawn)
Second: CCOC(=O)c1c(NC(=O)c2ccc(F)cc2)sc2c1CCC(CC)C2 (stereo not drawn)
The inhibition of the first is higher: 9.37% for the first, -18.9% for the second.

First: CCOC(=O)c1cc(S(=O)(=O)Nc2ccc(Br)c(C)c2)[nH]n1
Second: COc1cc(NC(=O)CN(c2cc(C)cc(C)c2)S(=O)(=O)c2c(C)[nH]c(=O)[nH]c2=O)cc(OC)c1
The inhibition of the first is higher: -1.32% for the first, -8.05% for the second.

First: COc1cc(C2c3c(oc4cc(C)c(C)cc4c3=O)C(=O)N2CCCN2CCOCC2)ccc1O (stereo not drawn)
Second: COc1ccc2c(c1)-c1nc(NC(=O)c3cc(OC)c(OC)c(OC)c3)sc1CC2
The inhibition of the first is lower: -9.07% for the first, -0.605% for the second.

Going from `Cc1c(C(=O)N2CCC(c3nc4ccccc4s3)CC2)oc2cc(Br)ccc12` to `Cc1cc(C)cc(C(=O)N2CC(=O)Nc3ccc(Br)cc3C2c2ccccc2)c1` (stereo not drawn), the inhibition falls from -3.49% to -24.7%.

First: CCOc1ccc(-n2c(=O)c3c(C)c(C)sc3n(Cc3ccccc3C)c2=O)cc1
Second: CCCCOc1ccc(C2C(=O)N(C3CCCCC3)CC(=O)N2CCCC)cc1 (stereo not drawn)
The inhibition of the first is lower: -21.6% for the first, -4.89% for the second.

Going from `COc1ccc2c(c1)CCc1c(C(=O)Nc3ccc(C#N)cc3)noc1-2` to `CN1C(=O)c2[nH]nc(-c3ccc(F)cc3)c2C1c1cccc(O)c1` (stereo not drawn), the inhibition falls from -7.81% to -10.4%.

Going from `CCCCN(CC)CCCNC(=O)c1ccc2c(c1)NC(=O)CN2C` to `O=C(C1CCC(Cn2c(=O)c3sccc3n(Cc3ccc(F)cc3)c2=O)CC1)N1CCOCC1` (stereo not drawn), the inhibition rises from -28.2% to -16.6%.

`Cc1cc(C)cc(Nc2nc3cc(Cl)c(Cl)cc3nc2-n2nc(C)cc2C)c1` gave an inhibition of -0.917%.

With `CCNc1nc(NCC)nc(N/N=C/c2ccc(O)c(O)c2)n1` the inhibition was active: 43.6%.
For `OC1(c2ccccc2)CCN(Cc2ccccc2)C2CCCCC21` (stereo not drawn), the inhibition was active: 38.1%.
`COc1ccc(N=C(N)SCc2ccccn2)cc1` was tested, and the inhibition was active: 44.6%.
For `Cc1ccc(S(=O)(=O)N2CCN(C(=O)COC(=O)CNC(=O)c3ccccc3)CC2)c(C)c1`, the inhibition was active: 32.7%.
With `O=C(NNC(=S)Nc1ccccc1Cl)c1ccccc1Br` the inhibition was active: 53.4%.
In the case of `O=c1[nH]c(CN2CCN(Cc3ccccc3)CC2)nc2scc(-c3ccccc3)c12`, the inhibition is reported as active: 68.8%.
In the case of `CCc1nn(C(C)C(=O)NCCN2CCN(c3cccc(C)c3C)CC2)c(=O)c2cc3occc3n12` (stereo not drawn), the inhibition is reported as active: 51.5%.
In the case of `COc1ccc(F)cc1C(=O)C1CCCN(Cc2c[nH]c3ccccc23)C1` (stereo not drawn), the inhibition is reported as active: 67.1%.
With `CSc1cccc(NC(=O)C2CCCN(S(=O)(=O)c3cnc[nH]3)C2)c1` (stereo not drawn) the inhibition was active: 30.6%.
For `COc1ccc(C(=O)NC(=S)Nc2ccccc2N2CCOCC2)cc1[N+](=O)[O-]`, the inhibition was active: 39.1%.
